# Reference: the antibiotic and cytotoxicity screens of Wong et al. (2023)
# The other results are listed elsewhere or left out.
# Test system: HepG2
# Test: cytotoxicity call (relative viability < 0.9)
# Conditions: 10 µM
row,Structure (SMILES),cytotoxicity call
1,COc1ccc2c3c([nH]c2c1)[C@H](CO)N(C[C@]13CCN(CC1)Cc1ccccc1OC)C(=O)Nc1ccc(cc1)F,inactive
2,Cc1noc(C)c1NC(=O)N[C@@H]1C=C[C@@H](CC(=O)NCCCN(C)C)O[C@@H]1CO,inactive
3,Cc1ccc(S(=O)(=O)N(C)C[C@@H]2OCCCC[C@H](C)Oc3ccc(NS(C)(=O)=O)cc3C(=O)N([C@@H](C)CO)C[C@H]2C)cc1,inactive
4,O=C1CC[C@@H](C(=O)N2CSC[C@H]2C(=O)O)N1,inactive
5,c1ccn(CCN2CCNCC2)c1,inactive
6,O=C(C[C@H]1C=C[C@H](NC(=O)CN2CCOCC2)[C@@H](CO)O1)NCCc1ccncc1,inactive
7,C[C@@H]1CN([C@@H](C)CO)C(=O)c2cc(NS(=O)(=O)c3cccs3)ccc2O[C@@H]1CN(C)S(C)(=O)=O,inactive
8,C[C@@H]1CCCCO[C@@H](CN(C)S(=O)(=O)c2cccs2)[C@@H](C)CN([C@H](C)CO)C(=O)c2cc(NC(=O)Cc3ccccc3)ccc2O1,inactive
9,COc1ccc(NC(=O)N(C)C[C@H]2OCCCC[C@@H](C)Oc3ccc(NS(=O)(=O)c4ccc(Cl)cc4)cc3C(=O)N([C@@H](C)CO)C[C@@H]2C)cc1,inactive
10,CCCN(C)C[C@@H]1OCCCC[C@@H](C)Oc2ccc(NS(C)(=O)=O)cc2C(=O)N([C@H](C)CO)C[C@H]1C,inactive
